# Results taken from PubChem BioAssay AID1645887 (National Center for Advancing Translational Sciences (NCATS), 2021).
# “And” between values parts separate entries of the source, which are not always exact repeats. Equal values may be shown once. About 40 (0.2%) of roughly 16,000 compounds were called active. About 1% were inconclusive and are not listed. Calls come from the whole dose curve; as a rule, active = well fitted activation curve with a large enough effect; inconclusive = small, poorly fitted or top-dose-only effect, or another doubt; inactive = no such curve, though single readings can be large or run the other way. The list shows a part of the results.
# Target: Rap guanine nucleotide exchange factor 4 (Homo sapiens) (UniProt Q8WZA2)
# Assay: Validation qHTS for agonist of cAMP-regulated guanine nucleotide exchange factor 4 (EPAC2);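 for activation: exchange makes BODIPY-GDP fluorescence drop when released from Rap1B; series mostly up to about 150 µM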
# Conditions: EPAC2 Rap1B BODIPY-GDP exchange, fluorescence; activation: stronger effect = higher value
# Outline: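 Fluorescent exchange assay: 100 nM EPAC2 with 250 nM RAP1B-BODIPY-GDP and 50 uM GDP; compound added, 5 min at room temperature, then read (ex 480/em 540 nm) every 5 min for 30 min. Normalized to 6.5 mM cAMP agonist control.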
# % is set by controls: 0 for no effect and ±100 for the full control effect; potency is the fitted concentration of half-maximal effect.
# Chain of UniProt Q8WZA2 (Q8WZA2 whole entry, looked up): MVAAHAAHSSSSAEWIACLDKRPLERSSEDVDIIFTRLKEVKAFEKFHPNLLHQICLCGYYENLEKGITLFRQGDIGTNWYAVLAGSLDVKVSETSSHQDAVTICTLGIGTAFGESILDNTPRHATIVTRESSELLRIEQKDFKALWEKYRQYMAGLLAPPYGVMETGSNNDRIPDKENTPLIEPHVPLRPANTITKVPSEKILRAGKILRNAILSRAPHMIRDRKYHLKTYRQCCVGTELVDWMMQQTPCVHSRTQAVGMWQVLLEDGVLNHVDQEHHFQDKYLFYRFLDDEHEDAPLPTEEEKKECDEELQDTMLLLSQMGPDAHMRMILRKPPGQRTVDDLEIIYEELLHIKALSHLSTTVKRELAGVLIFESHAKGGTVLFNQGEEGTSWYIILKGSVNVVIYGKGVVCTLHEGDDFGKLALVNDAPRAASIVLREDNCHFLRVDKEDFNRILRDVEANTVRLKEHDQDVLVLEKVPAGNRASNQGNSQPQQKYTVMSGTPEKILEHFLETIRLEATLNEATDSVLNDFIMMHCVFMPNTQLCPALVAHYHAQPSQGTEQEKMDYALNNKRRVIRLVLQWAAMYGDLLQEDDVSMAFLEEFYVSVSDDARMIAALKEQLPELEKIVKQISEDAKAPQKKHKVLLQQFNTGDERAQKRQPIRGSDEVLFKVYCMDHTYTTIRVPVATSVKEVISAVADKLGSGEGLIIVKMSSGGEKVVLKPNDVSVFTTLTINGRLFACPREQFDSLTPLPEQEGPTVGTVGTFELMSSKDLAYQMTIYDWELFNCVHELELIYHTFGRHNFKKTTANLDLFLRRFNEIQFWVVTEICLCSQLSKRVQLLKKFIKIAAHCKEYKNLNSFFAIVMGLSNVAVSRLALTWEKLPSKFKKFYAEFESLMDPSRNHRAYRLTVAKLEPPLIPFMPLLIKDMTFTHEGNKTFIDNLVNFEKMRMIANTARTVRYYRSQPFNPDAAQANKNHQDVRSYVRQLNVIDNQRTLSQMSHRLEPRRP
SMILES,activation,Potency
O=C(/C=C/c1ccccc1)c1ccc(O[C@H]2OC(CO)C(O)C(O)C2O)cc1O (stereo not given in full),inactive: -0.883%,
CC(=O)N1CCC[C@@]2(CCN(c3ccncc3)C2)C1,inactive: -12.8%,
CC(C)NC(=O)N1CC[C@@]2(CCCN(S(C)(=O)=O)C2)C1,inactive: -10.6%,
CC1(C)S[C@@H]2[C@H](NC(=O)[C@H](N)c3ccc(O)cc3)C(=O)N2[C@H]1C(=O)O,inactive: 11.5% and inactive: -15.2%,
CCOC(=O)C1=C[C@@]2(CC)CCCN3CCc4c(n1c1ccccc41)C32 (stereo not given in full),inactive: -1.12%,
CC(C)C(NS(C)(=O)=O)c1nnc2n1CCN(Cc1cccc3ncccc13)CC2 (stereo not given),inactive: -12.7%,
CC(C)NC(=O)N1CCC2(CC1)CCN(C(=O)c1ccco1)CC2,inactive: -9.04%,
O=C(c1cc(C(F)(F)F)cc(C(F)(F)F)c1)N1CCC2(CC1)CN(c1ccccn1)C2,inactive: -41.2%,
COc1cccc2c1C(=O)c1c(O)c3c(c(O)c1C2=O)C[C@@](O)(C(=O)CO)C[C@@H]3O[C@H]1C[C@H](N)[C@H](O)[C@H](C)O1,inactive: -17.2%,
Cc1ncc2c(c1CNC(=O)CN1CCCC1)CCN(C(=O)c1ccc(F)cc1F)C2,inactive: -2.16%,
C[C@H]1O[C@H](O[C@H]2[C@H](O)[C@@H](O)[C@@H](O[C@H]3[C@H](O)[C@@H](O)[C@H](O)O[C@@H]3CO)O[C@@H]2CO)[C@H](O)[C@@H](O)[C@@H]1N[C@H]1C=C(CO)[C@@H](O)[C@H](O)[C@H]1O,inactive: -7.09%,
Cc1cc2c(cc1S(N)(=O)=O)S(=O)(=O)CCC2,inactive: -84.3%,
O=S1(=O)[C@H]2C[C@@H]3C=C[C@@]2(CN1Cc1cccc(Cl)c1)O3,inactive: -17.2%,
COc1ccc(C(=O)N2CCC[C@@]3(CCN(c4cccc(-c5ccccc5)c4)C3)C2)cc1,inactive: 3.34%,
CSc1nc(C(=O)NCc2nc(-c3cccc(NC(=O)c4ccccn4)c3)oc2C)cs1,inactive: -22.1%,
CN(C)c1ccc(/C=C2\C(=O)/C(=C\c3ccc(N(C)C)cc3)c3ccccc32)cc1,inactive: -7.68%,
COc1ccccc1CNc1ccnc(-c2c(C)noc2C)n1,inactive: 5.45%,
CN1CCc2cc(O)c(O)cc2C(c2ccccc2)C1 (stereo not given),inactive: -27.2%,
COC(=O)[C@@H](c1ccccc1Cl)N1CCc2sccc2C1,inactive: 3.16%,
CC(=O)OC1C=C[C@]2(C)C(CC(OC(C)=O)[C@@]3(C)C4=CC(=O)OC(c5ccoc5)[C@]4(C)CCC23)C1(C)C (stereo not given in full),inactive: 9.76%,
CCNc1ncc2ncc(=O)n(C3CC3)c2n1,inactive: -7.32%,
CC(=O)SC1CC2=CC(=O)CC[C@@]2(C)C2CC[C@@]3(C)[C@@H](CC[C@@]34CCC(=O)O4)C12 (stereo not given in full),inactive: -13%,
Nc1nc2c(ncn2[C@@H]2O[C@H](CO)[C@@H](O)[C@H]2O)c(=O)[nH]1,inactive: -1.97%,
CCn1ccnc1C[C@@H]1COc2ccccc2O1,inactive: 5.97%,
CN(C)c1ccnc(-c2ccccc2C(F)(F)F)n1,inactive: -13.9%,
NCCNCCNCCNCCN,inactive: 3.31%,
CCOC(=O)N1CCN(Cc2ccc3c(c2)CN(C(=O)c2sc(C)nc2C)CCO3)CC1,inactive: -14.2%,

SMILES,activation,Potency
COc1ccccc1CNc1ncncc1-c1ccccc1C,inactive: -8.71%,
Cc1ccccc1-c1cncnc1NCc1cccs1,inactive: -29.1%,
CCCCC(=O)O[C@@]1(C(=O)CO)C(C)CC2C3CCC4=CC(=O)C=C[C@@]4(C)[C@]3(F)C(O)C[C@]21C (stereo not given in full),inactive: -22.7%,
COc1cccc(Cn2c(=O)c(-c3ccc(Cl)cc3)nc3cnc(OC)nc32)c1,inactive: 1.58%,
CNc1ncncc1-c1ccc(C(=O)N(C)C)cc1,inactive: -4.79%,
CCNc1ncc2nc(-c3cccc(C#N)c3)c(=O)n(Cc3cccc(OC)c3)c2n1,inactive: 3.97%,
CN[C@@H]1[C@@H](O)[C@@H](O[C@@H]2[C@@H](O)[C@H](OC3OC(CN)=CCC3N)[C@@H](N)C[C@H]2N)OC[C@]1(C)O (stereo not given in full),inactive: 6.15%,
Cc1ncc2c(c1CNC(=O)c1ccc3c(c1)OCO3)CCN(C(=O)c1ccoc1)C2,inactive: -3.86%,
COc1c(-c2coc3cc4c(cc3c2=O)CC(OC(C)=O)C(C)(C)O4)ccc2c1C=CC(C)(C)O2 (stereo not given),inactive: -16.3%,
NC(=O)c1cc[n+](CC2=C(C(=O)O)N3C(=O)[C@@H](NC(=O)[C@@H](c4ccccc4)S(=O)(=O)[O-])[C@H]3SC2)cc1,inactive: 0.636%,
CC(C)c1ccc2oc3nc(N)c(C(=O)O)cc3c(=O)c2c1,inactive: 25.1%,
N/C(=N\N=C\c1ccc(Cl)cc1)N/N=C/c1ccc(Cl)cc1,inactive: 6.79%,
COc1ccc(NC(=O)N2CC[C@@]3(CCCN(C(=O)c4csnn4)C3)C2)cc1,inactive: -17.3%,
Cc1cnc(CNc2ncncc2-c2ccccc2C(F)(F)F)cn1,inactive: -17.8%,
Cc1cc(-c2ccnc(-n3ncc(C(=O)N4CCCCC4c4cccnc4)c3C3CC3)n2)c(C)s1 (stereo not given),inactive: 2.18%,
COc1ccc(-c2nc3cnc(Nc4cccc(OC)c4)nc3n(C[C@H]3CCCO3)c2=O)cc1,inactive: -2.96%,
CCNc1ncc2nc(-c3cn(C)c4ccccc34)c(=O)n(Cc3cccc(OC)c3)c2n1,inactive: -18%,
Cc1ncc2c(c1CNC(=O)/C=C/c1cccs1)CCN(C(=O)c1ccc3c(c1)OCCO3)C2,inactive: -5.28%,
CCN1CCCC1CNC(=O)c1cnn(-c2nccc(-c3cccs3)n2)c1C1CC1 (stereo not given),inactive: -18.3%,
O=c1c(-c2ccc(F)cc2)nc2cncnc2n1Cc1ccccc1,inactive: -6.68%,
O=C(NCCN1Cc2ccccc2OC(c2ccsc2)C1)c1ccc2[nH]ccc2c1 (stereo not given),inactive: 7.93%,
CCCCCc1ccc(-c2cn(CC3CCCCC3)nn2)cc1,inactive: -17.7%,
CCO[C@@H]1O[C@H](C(COCc2ccccc2)OCc2ccccc2)[C@H](OCc2ccccc2)[C@H]1O (stereo not given in full),inactive: -43.2%,
NC(C(=O)N[C@@H]1C(=O)N2C(C(=O)O)=C(Cl)CS[C@H]12)c1ccccc1 (stereo not given in full),inactive: -50.7%,
CCOC(=O)c1c(N)sc2c1CCN(Cc1ccccc1)C2,inactive: -24.9%,
CC(=O)Oc1ccc2c(c1)CC[C@@H]1[C@@H]2CC[C@]2(C)[C@@H](O)CC[C@@H]12,,active: 44.7 µM
COc1ccc(C(Cl)=C(c2ccc(OC)cc2)c2ccc(OC)cc2)cc1,inactive: -4.52% and inactive: -1.99%,

SMILES,activation,Potency
O=c1[nH]c2cc(C(F)(F)F)c(N3CCOCC3)cc2n(CP(=O)(O)O)c1=O,inactive: -10.1%,
Cc1oncc1C(=O)Nc1ccc(C(F)(F)F)cc1,inactive: -37.1% and inactive: -36.7% and inactive: -49.9%,
Nc1ccn(C2CO[C@H](CO)O2)c(=O)n1 (stereo not given in full),inactive: -25.3%,
CN(C)c1ccc(C=O)cc1[N+](=O)[O-],inactive: -21.6%,
COc1ccc(C(=O)N2CCC[C@@]3(CCN(Cc4cc(C(F)(F)F)cc(C(F)(F)F)c4)C3)C2)cc1,inactive: -26.8%,
CC1CC(OC(=O)C(O)c2ccccc2)CC(C)(C)C1 (stereo not given),inactive: -39.2%,
OC1(c2cccnc2)CCN(Cc2ccc3c(c2)CN(Cc2ccc4nsnc4c2)CCO3)CC1,inactive: -21%,
COCC(=O)N1CCC2(CCCN(c3ccccc3)C2)CC1,inactive: -8.78%,
Cc1ncc2c(c1CNS(=O)(=O)N(C)C)CCN(C(=O)c1ccc(F)cc1Cl)C2,inactive: 5.94%,
Cc1nc(-c2coc3c(O)c(O)ccc3c2=O)cs1,inactive: -15.8%,
O=S1(=O)CCOC[C@H](CC2CCCCC2)N1Cc1cccc(C(F)(F)F)c1,inactive: -27.5%,
CS(=O)(=O)N1CCC[C@@]2(CCN(C(=O)Nc3cccc(F)c3)C2)C1,inactive: -10.7%,
CC(CCc1ccccc1)NCC(O)c1ccc(O)c(C(N)=O)c1 (stereo not given),inactive: -22.6% and inactive: -8.7% and inactive: -24%,
O=C(O)c1ccccc1[O-].O=C(O)c1ccccc1[O-].[Zn+2],inactive: -8.01%,
COCCn1c(=O)c(CCc2ccccc2)nc2cnc(Oc3ccccc3)nc21,inactive: -8.02%,
CCOC(=O)[C@H](CCc1ccccc1)N[C@@H](C)C(=O)N1Cc2ccccc2C[C@H]1C(=O)O,inactive: -14.8%,
CS(=O)(=O)N1CCC2(CC1)CN(c1ncccn1)C2,inactive: -12.8%,
Cc1cc2c(c(-c3ccc4nc(C)ccc4c3)c1)OC(CNC(=O)Cc1ccn(C)c1)C2 (stereo not given),inactive: 18.7%,
Cc1cc(C)cc(NC(=O)C2CC23CCN(Cc2ccc4ncccc4c2)CC3)c1 (stereo not given),inactive: -1.56%,
COCCn1c(=O)c(-c2cccc(C#N)c2)nc2cnc(OCc3ccccc3)nc21,inactive: 10.5%,
CC1CC[C@@]2(OC1)OC1CC3C4CC[C@H]5CC(O)CC[C@@]5(C)C4CC[C@]3(C)C1C2C (stereo not given in full),inactive: -11.5%,
CCCCCCCCCCCCCC(=O)N[C@@H](C)[C@H](O)c1ccccc1,inactive: 4%,
Cc1cc(NC(=O)Nc2ccc(N(C)C)cc2)c2cc(F)cc(F)c2n1,inactive: -12.4%,
Cc1onc(-c2c(Cl)cccc2Cl)c1C(=O)N[C@@H]1C(=O)N2[C@@H]1SC(C)(C)[C@@H]2C(=O)O,inactive: -21%,
COCCn1c(=O)c(-c2cccc(C#N)c2)nc2cnc(N3CCOCC3)nc21,inactive: 8.08%,
OC[C@H]1O[C@@H](n2cnc3c2NC=NC[C@H]3O)C[C@@H]1O,inactive: -14.4%,
